The values below come from ChEMBL document CHEMBL4888484, “Replenishing the malaria drug discovery pipeline: Screening and hit evaluation of the MMV Hit Generation Library 1 (HGL1) against asexual blood stage Plasmodium falciparum ,using a nano luciferase reporter read-out” (2022).

Among all 150,000 compounds or so, about 540 (0.36%) showed an effect of 50% or more. The list shows a part of the results.

The test system of this assay is Plasmodium falciparum. Description: Primary screen in NF54 nanoGlo assay, in single point, at 2uM, 72h; a lower Z score goes with more inhibition. The format is functional, Erythrocyte. As to conditions: timepoint 72 hour.
For orientation: % Inhibition means the drop in the measured response relative to a control, in per cent. Consider `CNC(=O)Cc1noc(-c2cscc2C)n1`, for which the “% Inhibition” value is listed as -5% and the Z score stood at 0.5.
`COCCS(=O)(=O)Nc1ccc2nscc2c1`: the “% Inhibition” value turned out to be 3% and the Z score is -0.39.
On the same counts, the results for `CCCN(Cc1c(-c2ccccc2)noc1N1CCOCC1)C(=O)c1ccc(C)cc1` are 1% and -0.23.
In the case of `Cc1cc(NC(=O)c2cccc(F)c2)nn1-c1ccc(F)cc1F`, the “% Inhibition” value is on record as -4% and the Z score is 0.61.
Consider `O=C(NCc1cccc(COC2CCOCC2)c1)c1cccnc1O`, for which the “% Inhibition” value is -13% and the Z score was 2.65.
`Cc1cc(NC(=O)NCc2cccc(OC3CC3)c2F)c(N(C)C)nn1`: the “% Inhibition” value is reported as -4% and the Z score came out at 0.58.
For `COc1ccc2c(c1)CN(C(=O)CC(C)C)CC[C@H]1COC(=O)N21`, in that order: -6% and 0.98.
For `CCNC(=O)N1CCc2nc(N3CCN(C)CC3)nc(Oc3ccccc3F)c2C1`, in that order: -4% and 0.56.
Consider `O=C1C[C@H](c2nc(C3CC3)no2)CN1c1ccc2c(c1)CCC2`, for which the “% Inhibition” value amounted to 0% and the Z score was -0.03.
On the same counts, the results for `Cn1cc(S(N)(=O)=O)c2ccccc21` are -10% and 1.18.
For the compound `O=C(c1c[nH]nc1-c1c(F)cccc1F)N1CCC[C@@H]1CF`, the “% Inhibition” value came out at 17% and the Z score is -2.01.
On the same counts, the results for `O=C(c1nnc(-c2cc(S(=O)(=O)N3CCN(C4CCCCC4)CC3)c[nH]2)o1)N1CCCC1` are -12% and 1.33.
Take `CCn1nncc1C(=O)N1CCOCC2(CCCC2)C1`: the “% Inhibition” value is listed as -7% and the Z score is 1.11.
For `NC(=O)C1CCN(C(=O)c2cc(O)c(OCc3ccccc3)cn2)CC1`, in that order: -3% and 0.4.
As for `COCC(=O)N[C@H](C(=O)NCc1ccc(C)s1)C(C)C`, the “% Inhibition” value is given as -12% and the Z score was found to be 1.53.
`c1cn2cnnc2c(N2CCc3sccc3C2)n1`: the “% Inhibition” value is on record as -5% and the Z score turned out to be 0.96.
For `CC(=O)N[C@H]1[C@H](c2ccccc2)N(CCCc2ccccc2)CC[C@@]1(C)O`, in that order: 36% and -4.09.
For `CCC(=O)N1CCCN(c2ccc(=O)n(-c3ccc(C)cc3)n2)CC1`, in that order: 13% and -1.54.
For `O=C(c1cc(-c2ccccc2)nc2ccccc12)N1CCN(c2ncccn2)CC1`, in that order: -6% and 0.8.
Turning to `Cc1n[nH]c(C)c1C(=O)NCc1nc(-c2cccn2C)no1`, the “% Inhibition” value is -4% and the Z score amounted to 0.49.
On the same counts, the results for `Cc1ccc2nc(-c3cccc(C)c3OS(=O)(=O)c3cccc(C(F)(F)F)c3)oc2c1` are -1% and 0.12.
For the compound `Cc1noc([C@@H]2CCCN2C(=O)c2ccc3nc(-c4ccccc4)cn3c2)n1`, the “% Inhibition” value was -1% and the Z score came out at 0.25.
On the same counts, the results for `CC(C)CN(Cc1c(-c2ccccc2)noc1N1CCC(C)CC1)C(=O)C1CCCC1` are -1% and 0.11.
`CN1[C@@H](CCC(=O)NCc2ccc(F)cc2)CNC(=O)[C@@H]2[C@H]1CCN2Cc1nc2ccccc2n1C`: the “% Inhibition” value is listed as 28% and the Z score is -3.31.
On the same counts, the results for `O=C(CCC1CCCC1)Nc1ccc2c(c1)CCC(=O)N2` are -15% and 1.73.
For `Cc1c(C(=O)N[C@@H](C)c2ccco2)cnn1-c1ncc2c(n1)-c1ccccc1CCC2`, in that order: 3% and -0.5.
For `Cc1[nH]c2c(c1C(=O)NCc1ccc3nonc3c1)C(=O)CCC2`, in that order: -3% and 0.5.
As for `C[C@H]1C(=O)NCCCN1Cc1ccn(-c2ccc(Cl)cc2)n1`, the “% Inhibition” value is given as 0% and the Z score turned out to be 0.06.
For `C[C@@H](CCc1ccc(F)cc1)C(=O)Nc1cc2n(n1)CCN(C)C2=O`, in that order: -13% and 2.24.
`CCC[C@@H]1C[C@@H]1C(=O)N1CCC(n2cc(C3CCCCC3)nn2)CC1`: the “% Inhibition” value is reported as -1% and the Z score is 0.22.
On the same counts, the results for `CCCNC(=O)CCc1nnc(C(=O)Nc2ccc(F)cc2)s1` are -12% and 2.17.
With `O=C(Nc1c(O)cccc1F)c1cccc(-n2cccn2)n1`, the “% Inhibition” value is reported as -8% and the Z score worked out at 1.53.
In the case of `O=C(C1CCC1)N1C[C@@H]2CN(Cc3cc(F)c(F)c(F)c3)C[C@]2(C(=O)O)C1`, the “% Inhibition” value is reported as -4% and the Z score amounted to 0.84.
For `CCN1C(=O)C2(CCN(S(=O)(=O)c3ccccc3)CC2)C[C@H]1C(=O)NCCCOC`, in that order: -10% and 1.26.
For `Cc1c(C(=O)N2CCO[C@H](C(=O)O)C2)nnn1-c1ccc(-c2ccccc2)cc1`, in that order: 5% and -0.93.
On the same counts, the results for `COc1ccc2c(c1)CN(C(=O)C1(c3ccccc3)CCOCC1)CC2` are -10% and 1.93.
As to `CCCCc1nc(CN2CCN(C(=O)CC(C)C)[C@H]3CS(=O)(=O)C[C@H]32)c[nH]1`, the “% Inhibition” value is listed as 2% and the Z score is -0.26.
For `O=C(CC(O)c1cccc(F)c1)NCC1CCOC1c1ccccc1` (stereo not drawn), the “% Inhibition” value was -1% and the Z score was found to be 0.11.
On the same counts, the results for `O=C(OC(c1nc2ccccc2o1)C(F)(F)F)C1CC2CCC1C2` (stereo not drawn) are -6% and 0.67.
For `CC[C@H]1CC[C@H](C(=O)N2CC[C@](C)(CO)C2)CC1`, in that order: -5% and 0.72.
`CN(C)C(=O)Cn1cc(NC(=O)C(=O)Nc2ccc(N(C)C)c(Cl)c2)cn1`: the “% Inhibition” value is reported as -14% and the Z score is reported as 2.51.
On the same counts, the results for `CCCN1CCC[C@H](CNC2Cc3ccccc3C2)C1` are 4% and -0.79.
For `CCN1CCC[C@@H]1CN1Cc2ccc(C(=O)N3CCOCC3)cc2C1=O`, in that order: -5% and 0.92.
For `COc1cccc(NC(=O)Cn2cnc(-c3noc(-c4cccnc4)n3)c2)c1`, in that order: 6% and -1.08.
Turning to `CC[C@](C)(NC(=O)CN1CCOc2ccc(Cl)cc21)c1nccs1`, the “% Inhibition” value is -11% and the Z score amounted to 2.09.
For `O=S(=O)(NCC#CCOc1cccc(C(F)(F)F)c1)c1cccnc1`, in that order: -26% and 3.39.
Take `O=C(Cn1c(C(=O)N2CCCC2)cccc1=O)Nc1ccc(F)cc1`: the “% Inhibition” value was -11% and the Z score came to 1.03.
On the same counts, the results for `C[C@@H](C(=O)N(C)CC1(CO)CCCC1)N1CCN(C)CC1` are -13% and 1.47.
`O=C(c1ccc(-c2cc[nH]n2)s1)N(Cc1ccccc1)CC1(CO)CC1`: the “% Inhibition” value was 7% and the Z score was -0.72.
On the same counts, the results for `COc1ccc(NC(=O)COc2cc(C)cc(C)c2)cc1S(=O)(=O)N1CCCCC1` are 9% and -1.03.
For `C[C@H]1[C@@H](NC(=O)COCc2cccc(Cl)c2)CCS1(=O)=O`, in that order: -7% and 0.96.
For `O=C(c1ccccc1)N1CCN(CCn2cnnc2)CC1`, in that order: -3% and 0.62.
Regarding `c1ccc2cc(Nc3ccc4ccccc4c3)ccc2c1`, the “% Inhibition” value is -8% and the Z score is given as 1.27.
As for `C=C(C)COCCNC(=O)Nc1cccc(N(C)CC)c1`, the “% Inhibition” value is -3% and the Z score is reported as 0.35.
`c1ccc(CCCOC2CN(c3nc4ccccc4o3)C2)cc1`: the “% Inhibition” value is recorded as -15% and the Z score is listed as 1.83.
On the same counts, the results for `COc1ccc(NC(=O)Nc2ccc(N3CCN(Cc4ccccc4)CC3)c(C(=O)NC3CCCCC3)c2)c(OC)c1` are -6% and 0.69.
For the compound `CC(C)[C@H]1CN(C(=O)c2n[nH]c3c2CN(C)CC3)C[C@@H]1NC(=O)N(C)C`, the “% Inhibition” value was -5% and the Z score is listed as 0.7.
On the same counts, the results for `Cc1cccn2cc(C(=O)N[C@H]3CCN(Cc4cscn4)C[C@@H]3O)nc12` are -18% and 1.68.
For `C1CC2(C1)CC(NC1CCOC(C3CC3)C1)C2` (stereo not drawn), in that order: 6% and -0.65.
For `Cc1onc(C(=O)N(CCN(C)C)C2CCOCC2)c1COc1ccccc1`, in that order: -1% and 0.21.
Take `O=C(c1c[nH]cn1)N1CC[C@@H](c2ccccc2Cl)S(=O)(=O)CC1`: the “% Inhibition” value is reported as -13% and the Z score was found to be 2.24.
On the same counts, the results for `CC1(C)CO[C@@H](CS(=O)(=O)NCc2nccn2C(F)F)C1` are -14% and 2.1.
For `CCOC1CC(CC(=O)NCCc2c[nH]c3ncccc23)C1` (stereo not drawn), in that order: -1% and 0.22.
For `O=C(Cc1cccs1)NCCOc1cc(N2CCCC2)ncn1`, in that order: 13% and -1.76.
For the compound `CC(O)(CN1CCCC(Cn2cncn2)C1)C(F)(F)F` (stereo not drawn), the “% Inhibition” value is -20% and the Z score stood at 2.81.
On the same counts, the results for `C=CCC(CC)NC(=O)Nc1ccn(C(C)COC)n1` (stereo not drawn) are -5% and 0.58.
For `O=c1cnc2cc(S(=O)(=O)N3CCCCCCC3)ccc2[nH]1`, in that order: -1% and 0.14.
For `CC(C)c1ccc(S(=O)(=O)[C@@H](CN)c2ccc(N(C)C)cc2)cc1`, in that order: -4% and 0.46.
Take `C=CCCC(=O)N1CC[C@H](OCC2CC2)C1`: the “% Inhibition” value is -17% and the Z score is reported as 2.7.
For `Cn1cccc1C(=O)NC1CCN(c2cc3c(nn2)CCCC3)CC1`, in that order: -17% and 2.88.
For `Cc1cc(=O)c(C(=O)N(Cc2ccsc2)C2CCCC2)c(C)[nH]1`, in that order: -4% and 0.66.
For `COC(=O)CCN(Cc1nc2c(F)cccc2[nH]1)C[C@H]1CCCO1`, in that order: -4% and 0.66.
Take `Brc1ccc([C@@H]2CCCN2c2cncc3nncn23)cc1`: the “% Inhibition” value is given as -9% and the Z score is 1.22.
As for `Cc1cc2oc(-c3cc4ccccc4o3)c(CC(=O)O)c2c(=O)[nH]1`, the “% Inhibition” value worked out at 5% and the Z score is reported as -0.77.
For `CCn1nccc1[C@H]1OCC[C@@H]1C(=O)N1CCN(CC(F)F)CC1`, in that order: -12% and 2.02.
On the same counts, the results for `COc1ccc(N(C)C(=O)c2c(C)coc2C)nc1` are -10% and 1.29.
For `CN1c2cccnc2CN(Cc2ccccc2)CC[C@H]1CO`, in that order: 32% and -3.63.
Regarding `Cc1nc(NCC2(CO)CCC2)ccc1Cl`, the “% Inhibition” value is reported as -10% and the Z score is listed as 1.11.
For `Cc1cc(C)c(C)c(OCc2nc(CN(C(=O)c3ccccc3)C3CC3)cs2)c1`, in that order: -15% and 1.63.
In the case of `O=C(C[n+]1cccc2ccccc21)c1ccc(F)cc1`, the “% Inhibition” value is -31% and the Z score was determined as 3.67.
On the same counts, the results for `O=C(NCc1cccc(C(F)(F)F)c1)c1ccc(CN2CCn3cccc3[C@H]2c2ccc3c(c2)OCCO3)o1` are -7% and 0.67.
For `Cc1nc[nH]c1-c1nccn1Cc1nnnn1-c1ccccc1`, in that order: 2% and -0.3.
On the same counts, the results for `CC(=O)Nc1cnn(Cc2nnc3n2CCCCC3)c1` are -12% and 1.27.
Consider `Cc1ccc(C(=O)Nc2cc(-c3noc(C)n3)sc2C)cc1`, for which the “% Inhibition” value amounted to 0% and the Z score was -0.06.
